Scores whose standard error is large were omitted. Not listed are two conditions whose scores span a narrow range. Read del as a deletion of the residues named and ins as an insertion between two positions. For part of these data: The concentration of ogerin is not given here.
B1: GPR68, Q15743 (parent)
chain: MGNITADNSSMSCTIDHTIHQTLAPVVYVTVLVVGFPANCLSLYFGYLQIKARNELGVYLCNLTVADLFYICSLPFWLQYVLQHDNWSHGDLSCQVCGILLYENIYISVGFLCCISVDRYLAVAHPFRFHQFRTLKAAVGVSVVIWAKELLTSIYFLMHEEVIEDENQHRVCFEHYPIQAWQRAINYYRFLVGFLFPICLLLASYQGILRAVRRSHGTQKSRKDQIQRLVLSTVVIFLACFLPYHVLLLVRSVWEASCDFAKGVFNAYHFSLLLTSFNCVADPVLYCFVSETTHRDLARLRGACLAFLTCSRTGRAREAYPLGAPEASGKSGAQGEEPELLTKLHPAFQTPNSPGSGGFPTGRLA

Assays:
[1] = variants of: B1; assay: cAMP reporter score (Enrich2 score, wild type = 0); higher = more signal; HEK293T, FACS bins
[2] = variants of: B1; assay: surface expression score (Enrich2 score, wild type = 0); higher = more signal; HEK293T, FACS bins

| Variant | cAMP reporter score ([1]; pH 6) | cAMP reporter score ([1]; pH 6, modulator: ogerin) | surface expression score [2] | cAMP reporter score ([1]; pH 6.5, modulator: ogerin) |
| --- | --- | --- | --- | --- |
| A184G | 1.77 | 0.208 | 1.13 | – |
| I185H | -0.174 | – | – | -0.603 |
| Y187_Y188insG | 0.408 | -0.682 | – | – |
| Y188D | -0.474 | – | -2.04 | -0.049 |
| Y188K | 1.96 | 0.263 | – | -0.434 |
| L191C | 0.83 | 1.26 | 2.48 | -0.012 |
| F194_F196del | 0.444 | – | -2.98 | -0.798 |
| F196Q | -0.599 | – | – | -0.427 |
| P197D | -0.65 | -0.694 | -1.38 | – |
| P197G | -1.14 | – | -2.86 | -0.458 |
| P197_I198del | -1.06 | – | -1.64 | -0.852 |
| I198A | 3.66 | 1.72 | – | 0.806 |
| I198K | -0.39 | -2.17 | -0.548 | – |
| L200R | -0.114 | -2.03 | -0.455 | – |
| L202del | -0.119 | -0.064 | – | – |
| Q206Y | 1.18 | 0.608 | 1.27 | 0.452 |
| A211G | -0.644 | – | 2.01 | 0.134 |
| R213_R214insG | -0.668 | – | – | – |
| Q219_K220insG | -1.56 | -1.28 | – | -2.06 |
| K220E | 0.25 | -0.904 | – | -3.27 |
| D224C | 0.105 | -0.273 | 1.13 | 0.007 |
| D224M | 0.795 | 0.928 | 1.66 | 1.94 |
| L231M | -0.042 | – | – | – |
| V234L | -0.286 | -0.259 | 0.779 | 0.351 |
| F241N | 4.54 | – | -1.09 | – |

| Variant | cAMP reporter score ([1]; pH 6) | cAMP reporter score ([1]; pH 6, modulator: ogerin) | surface expression score [2] | cAMP reporter score ([1]; pH 6.5, modulator: ogerin) |
| --- | --- | --- | --- | --- |
| F241R | -0.2 | – | -0.411 | – |
| L247E | -1.06 | -1.07 | – | – |
| S257_C258del | -0.813 | -1.65 | -0.943 | -1.58 |
| F260A | 0.435 | 0.648 | -0.238 | 0.086 |
| A261F | -0.49 | -1.23 | – | -0.323 |
| S271W | -0.847 | -1.49 | -0.805 | -0.443 |
| S271Y | -1.06 | -1.75 | – | -2.77 |
| N278T | -0.211 | -0.671 | 0.145 | -0.808 |
| C287L | -0.995 | – | 0.539 | -1.07 |
| F288P | -1.73 | – | -2.83 | 0.01 |
| V289P | 1 | 0.89 | -1.71 | -0.154 |
| H294_R295insGS | 1.75 | – | – | -0.685 |
| D296L | -0.489 | 0 | -0.425 | -0.432 |
| F307W | 1.85 | 1.26 | 2 | 0.884 |
| S311A | -0.591 | -0.678 | – | 0.448 |
| R312G | 2.98 | 1.75 | 1.93 | – |
| R312P | -0.159 | 0.482 | -0.325 | -1.02 |
| R312V | -0.463 | 1.21 | -0.375 | 0.001 |
| T313_R315del | -0.762 | – | – | – |
| R315E | 1.12 | -0.161 | 2.12 | – |
| A316_R317insGS | 1.28 | 0.683 | 0.969 | 1.24 |
| S331V | -0.447 | 0.809 | 2.03 | – |
| P338L | 2.22 | 0.234 | – | 0.412 |
| K343Q | 1.15 | 1.24 | 2.95 | – |
| P346T | -0.38 | – | – | -0.426 |

| Variant | cAMP reporter score ([1]; pH 6) | cAMP reporter score ([1]; pH 6, modulator: ogerin) | surface expression score [2] | cAMP reporter score ([1]; pH 6.5, modulator: ogerin) |
| --- | --- | --- | --- | --- |
| S353F | 2.18 | – | 1.15 | – |
| S353Q | 0.658 | 0.915 | – | -0.438 |
| S356I | 0.22 | 1.28 | 0.363 | 1.03 |
| G357_G358del | -0.619 | – | – | 2.56 |
| G362V | 0.404 | -0.101 | 1.16 | – |
| V26H | – | -1.36 | -0.289 | -0.395 |
| V26K | – | -2.78 | – | -2.34 |
| G35_F36insG | – | -1.19 | -1.58 | -1.11 |
| F36_P37insGSG | – | -0.347 | – | -1.51 |
| L41H | – | -0.683 | -1.18 | -1.52 |
| S42D | – | -2.19 | -3.62 | 0.242 |
| L48_Q49insGS | – | -0.746 | -2.75 | -0.051 |
| V65N | – | -1.26 | -2.63 | -0.639 |
| D67A | – | -0.615 | 1.16 | -0.831 |
| P75D | – | -1.46 | -2.81 | -1.26 |
| G98C | – | -0.686 | – | -0.432 |
| G98M | – | -0.642 | – | -0.421 |
| G98Q | – | -0.684 | – | -0.784 |
| N104S | – | -0.673 | – | – |
| I105E | – | -0.606 | -0.427 | – |
| I105F | – | -0.665 | -0.314 | – |
| I105Y | – | -0.624 | – | – |
| S108P | – | -1.3 | – | – |
| F111A | – | -1.2 | -0.778 | -0.443 |
| I115C | – | -0.729 | -0.99 | – |

| Variant | cAMP reporter score ([1]; pH 6) | cAMP reporter score ([1]; pH 6, modulator: ogerin) | surface expression score [2] | cAMP reporter score ([1]; pH 6.5, modulator: ogerin) |
| --- | --- | --- | --- | --- |
| I115P | – | -1.31 | -2.38 | – |
| D118_R119insGS | – | -0.746 | -1.33 | – |
| R119_Y120insGSG | – | -4.2 | -1.97 | – |
| L121_V123del | – | -0.668 | -0.672 | -0.438 |
| P126I | – | -0.731 | -3.66 | -0.958 |
| H130S | – | -0.623 | – | -0.448 |
| T134del | – | -0.754 | -3.54 | -1.4 |
| A138H | – | -0.735 | – | 0.239 |
| A138M | – | -1.67 | -2.38 | -2.11 |
| A138T | – | -0.118 | – | -0.427 |
| V144N | – | -2.49 | – | -3.9 |
| V144R | – | -2.42 | -2.48 | -1.9 |
| K148_E149insGSG | – | -2.93 | – | -0.971 |
| H159C | – | -2.83 | – | – |
| E160V | – | -2.32 | – | – |
| E161W | – | -1.19 | 0.086 | -0.824 |
| Q168Y | – | 0.715 | 2.46 | 0.244 |
| R170T | – | -0.644 | 4.57 | – |
| Y176V | – | -1.58 | 0.171 | -2.63 |
| R183Y | – | -0.72 | – | -2.67 |
| F196E | – | -0.724 | -1.16 | -0.437 |
| P197N | – | -0.75 | – | – |
| P197S | – | -1.96 | -3.56 | – |
| I198G | – | 0.009 | – | -0.175 |
